Results on 93 sequences are retold here after paper PMC10726135.

Some of the results follow. At the low end of the ranking the order means little. Measured with an extract: partners may take part in the binding.

For this experiment, the target named is T1, HNF4alpha2 (COS-7 nuclear extract) (UniProt P41235).
T1 sequence: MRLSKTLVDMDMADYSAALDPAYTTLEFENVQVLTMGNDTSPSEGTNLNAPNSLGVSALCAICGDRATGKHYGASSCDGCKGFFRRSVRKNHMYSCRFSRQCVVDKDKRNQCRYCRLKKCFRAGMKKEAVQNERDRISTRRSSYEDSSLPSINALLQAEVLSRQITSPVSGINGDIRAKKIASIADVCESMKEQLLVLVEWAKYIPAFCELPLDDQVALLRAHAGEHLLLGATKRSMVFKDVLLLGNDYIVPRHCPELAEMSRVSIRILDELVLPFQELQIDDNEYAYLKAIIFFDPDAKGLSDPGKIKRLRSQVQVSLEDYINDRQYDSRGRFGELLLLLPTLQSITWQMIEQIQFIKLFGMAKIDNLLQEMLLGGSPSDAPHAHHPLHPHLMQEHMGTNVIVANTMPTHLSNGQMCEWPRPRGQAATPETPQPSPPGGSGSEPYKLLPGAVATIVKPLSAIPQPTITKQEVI
The experiment is described as follows: protein-binding microarray. Conditions: COS-7 nuclear extract on double-stranded Agilent 4x180k PBM; binding buffer, salt, pH and temperature not given; high values mean tight binding; double strand, one strand shown; sequences stand for … in …GCCTAGGGAGATTAGAGTATCGGTCGA
In the case of TAAGCTCATGCTTTCATCTCCCCAACACTT, the binding signal (log2 normalized intensity) worked out at 3.66.

Take TTAGGCCTCGGGAGTCTGGCTGCCCTGGGG: the binding signal (log2 normalized intensity) is -0.965.

With GTCCTACAAATGATCAAAGGTTGGTCTTAG, the binding signal (log2 normalized intensity) stood at 2.44.

On to AGCCATTAGGCTGATGCCCTTTGGATTTAG, for which the binding signal (log2 normalized intensity) was determined as 3.77.

Regarding TGTGTAGACATCACCTGCTCATTGACCCTT, the binding signal (log2 normalized intensity) was found to be 5.18.

Regarding GTGTGAGGTCCAAGCAGATGCTTTGAAGTG, the binding signal (log2 normalized intensity) was determined as 0.603.

TTTTGATCAAGGAGGACTTTGGAATGGCAG: the binding signal (log2 normalized intensity) came out at 3.81.

On to GATCCCGGGAGGGAGAGAAGGACATCTATC, for which the binding signal (log2 normalized intensity) is -1.13.

CCTGGTCACTATTGACATTTGGGGTCAGAT: the binding signal (log2 normalized intensity) worked out at 3.47.

Regarding TGGAAAGGTGAATGTACAAAGGTCAACGGC, the binding signal (log2 normalized intensity) worked out at 5.6.

For CGTTAACATCAGCTGAGCAGAGAGGACCCT, the binding signal (log2 normalized intensity) was determined as 1.

In the case of ACAGACCTTTGTATATTCCCTTTGTATGGC, the binding signal (log2 normalized intensity) was 2.17.

For the sequence AGGAGGACATACTCCTACCACCAAAGAAAA, the binding signal (log2 normalized intensity) is -1.01.

Consider GTATACTGACTAGGACAGAGCAGATGAAAG, for which the binding signal (log2 normalized intensity) was -1.17.

For AAACACTGAACCTTGTCCCACTCTTGGGTC, the binding signal (log2 normalized intensity) came to 1.64.

As to ACAGTTGCTGTCTAGAAAGATTGCAGCAAG, the binding signal (log2 normalized intensity) is -0.618.

Turning to AGGCTGAGGTTTTCATCCCAGGGCTGGGGA, the binding signal (log2 normalized intensity) is -0.657.

Turning to TCATTTCCCCATTCCTAAGTTCCAAAGGCC, the binding signal (log2 normalized intensity) was determined as 2.88.

GGGTTAAAGTCTACAACCAGAACTTCTTAT: the binding signal (log2 normalized intensity) is 1.7.

For the sequence ACTCTATGTTAGGCTGGAAAACTGGGCTGT, the binding signal (log2 normalized intensity) was 0.95.

Consider GCTGTGTCCCACAGGGAAAGTATGGGTCAG, for which the binding signal (log2 normalized intensity) is 1.12.

With AACCCCTTTTCAATTCCTTATCTCGTTCTG, the binding signal (log2 normalized intensity) was 0.489.

For CCCTGCATCCACATGGGCGTCACCAACCAG, the binding signal (log2 normalized intensity) is 2.18.

For GCCTTTAATCAACTGCAGGAGTCGGGAGGT, the binding signal (log2 normalized intensity) worked out at 0.442.

As to CAGTAACAGGGAGTCTGTTGCAAGCAATGG, the binding signal (log2 normalized intensity) was 0.619.

Regarding ATGCTATCTCCCAGTTCTTTTGACCTTTGC, the binding signal (log2 normalized intensity) was 7.68.

Turning to CTATGTCAATAGAGCATGAGAACTTCTTCC, the binding signal (log2 normalized intensity) is -0.566.

Consider CAGGTGAGCCCTACTCAGGTTAATCTCAAA, for which the binding signal (log2 normalized intensity) was -0.286.

With ATGCACGTGCTCCAGGAGGGGAGGAGGGTC, the binding signal (log2 normalized intensity) was found to be 2.53.

In the case of AGCTGTGAACTGACTGGGGTTAACGTCCAA, the binding signal (log2 normalized intensity) was found to be 2.52.

With ATCCCAGTTACTCAGCGAATACCAAATTCC, the binding signal (log2 normalized intensity) is -0.789.

Turning to TGGGGATGCTCAAAGTACACTTGGAGAAAA, the binding signal (log2 normalized intensity) was 0.91.

CAACCTGCTCTTCTCTAAAGTCTGCTATCT: the binding signal (log2 normalized intensity) was found to be 0.611.

TCACCCTGGTGCTGCTACTTTAGCTGCCAG: the binding signal (log2 normalized intensity) is -1.09.

CCTATTATTTTATAGAAAAGGAAAGTGAGG: the binding signal (log2 normalized intensity) amounted to 1.42.

On to TCCAAAGGTGTCAAGAACATAGCCCTCTAC, for which the binding signal (log2 normalized intensity) was -1.39.

Consider GCCCACTTTCCTGGGCCGGGGTAGCGCTCT, for which the binding signal (log2 normalized intensity) was -0.957.

As for ACATCCTCTCAGGTCAAAGTTTGCCTTGAC, the binding signal (log2 normalized intensity) is 2.64.

As to TGTGATGTGAAGAGTGTGGACTTTCACCTC, the binding signal (log2 normalized intensity) worked out at 8.12.

In the case of CTTTGACCTCAGAGAGCCGGAAACTCCACC, the binding signal (log2 normalized intensity) was -1.05.

With AACATAACAGCAACAACACAGATCATATCA, the binding signal (log2 normalized intensity) was -1.01.

As for GGACGTCCCCGGGCGGGATGGGGTCACGAG, the binding signal (log2 normalized intensity) was determined as 2.13.

On to AGATTTGACCTACGGACCATGGATCGCCAA, for which the binding signal (log2 normalized intensity) amounted to 1.83.

In the case of CTCAAGCCAGACTGGTTTTTCTTGGGTGTA, the binding signal (log2 normalized intensity) stood at 1.68.

For CTGATAAAACAGCATGCGGTAAAGAAGCCA, the binding signal (log2 normalized intensity) was -1.07.

On to AGCCTAGTAAAAGGTAGATACTATAATTAG, for which the binding signal (log2 normalized intensity) was -1.01.

For CTATCTTTGTAAGTACATTAATATACTGTG, the binding signal (log2 normalized intensity) was 1.97.

As to GCATGGCTCAGTCCAAGTCCAAAGGTCTGA, the binding signal (log2 normalized intensity) came out at 5.39.

In the case of TTAAAGCATATTTATTCAGGCCCACTGCAG, the binding signal (log2 normalized intensity) was -1.1.

As to CTTATCAGCAAGCATTAATCCCTGAGCCTG, the binding signal (log2 normalized intensity) is -1.09.

For GCCAAAAGGTGCTACCACGAGAGTAGAGAG, the binding signal (log2 normalized intensity) was -1.15.

In the case of CAGACAGGCATGACAGAGTGTCCTGCCCCC, the binding signal (log2 normalized intensity) was 4.92.

In the case of CAAACACAAAAAGCGGACAAACCAGTCCCA, the binding signal (log2 normalized intensity) was -1.19.

Turning to CTTTGAGATTTGCATTCATGATCTTAGATA, the binding signal (log2 normalized intensity) was found to be 1.24.

For AACTTCGGGAATCTGACCTTTGGGACATTC, the binding signal (log2 normalized intensity) was 5.61.

With TGCAACATTAAAACAACCCAGAGAATGCTA, the binding signal (log2 normalized intensity) is -0.716.

CATGTTAATTTAAATAACAAGGATAGCGTC: the binding signal (log2 normalized intensity) is -0.878.

For TCCCTAAGATTTATCCCAAATGTTTGCACT, the binding signal (log2 normalized intensity) came to 1.71.

Regarding TGAGTGTGTTTCTTGTTTCAGAGTAAATAC, the binding signal (log2 normalized intensity) was found to be 1.45.

Consider GAGATTTCAGCCGCTTTGAGGTCAATGGTA, for which the binding signal (log2 normalized intensity) is 2.22.

Take ATATTTGTCTTCCTATCTCCTTACTCTTTG: the binding signal (log2 normalized intensity) stood at 0.837.

As to TCCCTGGGTACAACTTTATCTAAGGGTTTC, the binding signal (log2 normalized intensity) stood at 0.61.

Take GACAAAATGCCCAGGATTCCTTTTTCACTG: the binding signal (log2 normalized intensity) was -1.13.

AAGATTAGCTCACAGGAAAGGAGACTAAAG: the binding signal (log2 normalized intensity) is -1.2.

Turning to ATGAGAACTTCTTCCAATGAAAGGTTAACC, the binding signal (log2 normalized intensity) was determined as 1.48.

Consider ATCTGAATGTATGGGCTATTTATGACGGTG, for which the binding signal (log2 normalized intensity) worked out at 1.67.

For the sequence CCCGTGTCTCCCTACCTCTGCACAGCTCCA, the binding signal (log2 normalized intensity) was -1.09.

Take TTCCTGTAAATAATTAAGACCAAACTGCTG: the binding signal (log2 normalized intensity) is -1.01.

GACCCTCTGCCCCCTACACAGAGGAGCGAC: the binding signal (log2 normalized intensity) was 3.79.

Consider GTGTTTCTTGTTTCAGAGTAAATACGAACC, for which the binding signal (log2 normalized intensity) was 1.33.

For the sequence GGGATCCGGCCTTCCCGGGTGGACGTCCCC, the binding signal (log2 normalized intensity) stood at 0.652.

Consider CTAGATGGCTGTGACTACTTCCGGACATGG, for which the binding signal (log2 normalized intensity) worked out at 0.55.

As to TGGCACTGAAGAATGTCTAAATCTGAAGGA, the binding signal (log2 normalized intensity) was -0.884.

As for AAGTCTTAGTTTCCTTATCTGTAAAATGGA, the binding signal (log2 normalized intensity) was 1.67.

With TTCCCGGCCTGGCCACTCCGTTTGCTATGG, the binding signal (log2 normalized intensity) is -1.07.

Regarding TGGCATGCAGCAGGGGAATGGAGACACACC, the binding signal (log2 normalized intensity) was -0.628.

For CACAAGCAATGGCTGGGTCTAAGGGCAAGT, the binding signal (log2 normalized intensity) worked out at 0.463.

For TCTGTCTTCGGGCGGCGGCCTCTGGGAAAT, the binding signal (log2 normalized intensity) came out at 0.0959.

For the sequence AGTAATGTGATTTAATTCTGAGTTCCAATA, the binding signal (log2 normalized intensity) was determined as 0.93.

For the sequence TGCCCCAGTCCTTCAGTCCTTCCCCCGCCA, the binding signal (log2 normalized intensity) is 5.41.

In the case of ATTGGACTCTCTCATTCTGATATGCACTGT, the binding signal (log2 normalized intensity) amounted to 1.63.

For the sequence CCAGTAGAGAAACAAATCTGCTTTCTACCC, the binding signal (log2 normalized intensity) is -1.29.

Turning to TGACTACCAGGTTCTGTACTTTGGAACCTG, the binding signal (log2 normalized intensity) came out at 6.78.

For the sequence AGCCTGACCATCACCACTTCAAGCTTGGTA, the binding signal (log2 normalized intensity) is -1.11.

For the sequence TATTAATGAGGCAAAGGTCAGGAGTTCCAT, the binding signal (log2 normalized intensity) came out at 3.05.

GAAGTGATCCTTATCAGTGTGAGCTACAAG: the binding signal (log2 normalized intensity) was 0.52.

On to TGAAAAAGGGTTGTGCAAACTTCAGCAGAA, for which the binding signal (log2 normalized intensity) is -1.12.

On to CCAGAATAGCCTCTGCAACTCAGAGACAGG, for which the binding signal (log2 normalized intensity) is -1.17.

Turning to TTCACCCCATTTTGTCCCTCCCTGCAGCTG, the binding signal (log2 normalized intensity) came to 4.07.

As to AATAGCTGAACTATTTAAGGCCTTTGAAGT, the binding signal (log2 normalized intensity) was -0.502.

On to ACCAGAGACCTTTGTTCACTTGTTTATCTG, for which the binding signal (log2 normalized intensity) worked out at 2.35.

As to AGGTCCCCAAGAGCCTTATCACATTACAGG, the binding signal (log2 normalized intensity) was -0.373.

Turning to GGGCTAAACATCAAGACAGGTGAGAGAGCT, the binding signal (log2 normalized intensity) was -0.956.
